Laboratory results reported in the supplement of paper PMC6206098.
± gives the uncertainty stated by the source. Shown are siRNA guide strands that differ only in the seed, positions 2 to 7.

What was measured:
3LL = assay: cell viability relative to siNT1 control; higher = less toxic; settings: concentration: 10 nM; 96 h; Mus musculus;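 note: Luminescence-based viability of cells reverse transfected in 384-well plates with lipid-complexed siRNAs built on a non-toxic 19mer backbone whose passenger strand carries 2′-O-methyl groups at positions 1 and 2, triplicates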
M565 = assay: cell viability relative to lipid-only control; HeyA8 human ovarian and H460 human lung cancer; M565 mouse liver and 3LL mouse lung cancer; siNT1 is a non-toxic control siRNA; higher = less toxic; settings: concentration: 10 nM; 96 h; Mus musculus
H460 = assay: as above; settings: concentration: 10 nM; 96 h; Homo sapiens
HeyA8 = assay: as above; settings: concentration: 10 nM; 96 h; Homo sapiens
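Throughout, for cell viability relative to lipid-only control: reverse lipid transfection in 384-well plates, in triplicate, of duplexes on a non-toxic 19mer backbone with passenger strand 2′-O-methylated at positions 1 and 2, luminescence viability read-out.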

Sequence | cell viability (3LL) | cell viability (M565) | cell viability (H460) | cell viability (HeyA8)
UGUGUGAACAUGUAAACCAAA | 72.7 ± 4% | 52.9 ± 9.8% | 54.2 ± 4.1% | 44.7 ± 5.6%
UAGGGAUACAUGUAAACCAAA | 61.4 ± 12% | 29.9 ± 4.3% | 42.1 ± 0.47% | 19.2 ± 1.3%
UCACACAACAUGUAAACCAAA | 99.9 ± 16% | 62.4 ± 14% | 30.1 ± 6.9% | 89.8 ± 12%
UAGGUCAACAUGUAAACCAAA | 71.4 ± 5.7% | 38.8 ± 4.5% | 82 ± 18% | 62.1 ± 1.9%
UCCUCACACAUGUAAACCAAA | 82.5 ± 22% | 30.3 ± 3.9% | 41.6 ± 2% | 76.6 ± 1.5%
UCUGCUAACAUGUAAACCAAA | 91.2 ± 12% | 67 ± 18% | 68.1 ± 12% | 89.9 ± 2.1%
UUUAGAGACAUGUAAACCAAA | 94.94 ± 0.8% | 91.8 ± 13% | 90.4 ± 10% | 97 ± 1.3%
UAGAAGGACAUGUAAACCAAA | 90.7 ± 7.9% | 94.4 ± 14% | 59.2 ± 3.4% | 44.6 ± 3.6%
UUGCCACACAUGUAAACCAAA | 10.8 ± 5.5% | 22.8 ± 4.8% | 45.5 ± 4.3% | 37.8 ± 2.5%
UAUAUAAACAUGUAAACCAAA | 99.1 ± 16% | 97.9 ± 12% | 76 ± 15% | 98.1 ± 13%
UGCAGACACAUGUAAACCAAA | 2.77 ± 0.91% | 15.3 ± 12% | 43.9 ± 2.3% | 27.1 ± 5.7%
UUGCUCGACAUGUAAACCAAA | 68.1 ± 6.9% | 60.9 ± 7.6% | 66.9 ± 2.1% | 69.4 ± 8%
UUGUUUAACAUGUAAACCAAA | 98.3 ± 9.5% | 91.6 ± 7.3% | 78.8 ± 12% | 82.5 ± 2.2%
UAUCGCCACAUGUAAACCAAA | 17.5 ± 3.4% | 58.2 ± 5.9% | 80.2 ± 2.3% | 103 ± 11%
UCGCCCCACAUGUAAACCAAA | 65.7 ± 18% | 38 ± 4% | 60.8 ± 4.4% | 71.2 ± 1.7%
UGACUUUACAUGUAAACCAAA | 76.7 ± 13% | 94.6 ± 8% | 47.8 ± 6.1% | 57 ± 2.8%
UCUGGCCACAUGUAAACCAAA | 72.9 ± 8.3% | 12.9 ± 2.6% | 50.4 ± 0.52% | 55.2 ± 2.1%
UGCGCCGACAUGUAAACCAAA | 81.6 ± 8.1% | 67.3 ± 6.2% | 51.6 ± 4.8% | 57.2 ± 2.8%
UUUGUUCACAUGUAAACCAAA | 91.3 ± 12% | 35.7 ± 4.6% | 81.1 ± 12% | 62.7 ± 4.1%
UGUCUUCACAUGUAAACCAAA | 35.3 ± 1.7% | 40 ± 8.6% | 46.3 ± 4% | 2.22 ± 0.17%

Sequence | cell viability (3LL) | cell viability (M565) | cell viability (H460) | cell viability (HeyA8)
UGGGACAACAUGUAAACCAAA | 83.7 ± 6.4% | 17.3 ± 7.3% | 48.4 ± 8.8% | 85.5 ± 0.96%
UCUCGAUACAUGUAAACCAAA | 88.8 ± 16% | 61.4 ± 8.8% | 42.6 ± 4.2% | 90.3 ± 5.8%
UAUACAAACAUGUAAACCAAA | 114 ± 13% | 110 ± 11% | 73.6 ± 12% | 100 ± 9.2%
UCACGCGACAUGUAAACCAAA | 100 ± 12% | 67.7 ± 9.2% | 23.8 ± 5.9% | 85.9 ± 5.3%
UAGGCGGACAUGUAAACCAAA | 44 ± 2.2% | 14.2 ± 4.6% | 65.4 ± 9.4% | 36 ± 3.4%
UACACAAACAUGUAAACCAAA | 84.7 ± 7% | 49.3 ± 2.1% | 77.2 ± 2% | 85 ± 4.8%
UUUCCUCACAUGUAAACCAAA | 46.4 ± 5.2% | 34.5 ± 7.3% | 35.2 ± 1.8% | 56.1 ± 5.3%
UCUACGUACAUGUAAACCAAA | 94.8 ± 7.1% | 72.3 ± 14% | 62.3 ± 1.9% | 80.8 ± 5.3%
UUAGCUUACAUGUAAACCAAA | 54.6 ± 6.8% | 67.3 ± 7.7% | 66.9 ± 4% | 63.3 ± 2.5%
UUUGACUACAUGUAAACCAAA | 79.9 ± 0.99% | 84.7 ± 11% | 49.4 ± 3.1% | 76.9 ± 1.2%
UUUUCGGACAUGUAAACCAAA | 85.9 ± 6% | 69.9 ± 9.7% | 65.5 ± 4.1% | 84.3 ± 7.4%
UCUCUGUACAUGUAAACCAAA | 67.7 ± 4.9% | 20.7 ± 3.3% | 39.3 ± 4.2% | 59.1 ± 3.3%
UUUGUAGACAUGUAAACCAAA | 103 ± 7.3% | 75.2 ± 13% | 81.7 ± 8% | 88.3 ± 3.8%
UCUCGAAACAUGUAAACCAAA | 88.2 ± 13% | 71.1 ± 5.7% | 48.4 ± 5.1% | 87 ± 4.2%
UCUACACACAUGUAAACCAAA | 97.7 ± 15% | 74 ± 21% | 62.3 ± 1.8% | 93.2 ± 11%
UGUGAUUACAUGUAAACCAAA | 69 ± 7% | 19.2 ± 3.1% | 43.8 ± 11% | 53.7 ± 2.5%
UUGUAGAACAUGUAAACCAAA | 62 ± 6.4% | 29.1 ± 8.2% | 63.7 ± 6.3% | 59.9 ± 4.4%
UACAUAAACAUGUAAACCAAA | 97.5 ± 11% | 79.2 ± 8.8% | 99.1 ± 14% | 94.4 ± 7.7%
UAGAGCCACAUGUAAACCAAA | 4.98 ± 0.59% | 9.32 ± 4.5% | 48.1 ± 2.3% | 27.7 ± 0.81%
UUUCGAAACAUGUAAACCAAA | 103 ± 7.4% | 78 ± 5.2% | 77.7 ± 12% | 101 ± 3.3%

Sequence | cell viability (3LL) | cell viability (M565) | cell viability (H460) | cell viability (HeyA8)
UGCUCCGACAUGUAAACCAAA | 51.1 ± 9.6% | 66.9 ± 1.7% | 37.7 ± 4.7% | 34.5 ± 2.7%
UCAGGCAACAUGUAAACCAAA | 89.8 ± 15% | 45.4 ± 4.1% | 65.7 ± 18% | 83.5 ± 6.7%
UCAUAACACAUGUAAACCAAA | 95.3 ± 19% | 56.8 ± 14% | 36.3 ± 1.8% | 55.84 ± 0.33%
UUACUUAACAUGUAAACCAAA | 95.9 ± 8.5% | 75 ± 8.5% | 73 ± 9% | 89.5 ± 3.2%
UCUACGCACAUGUAAACCAAA | 93.9 ± 13% | 68.7 ± 6.8% | 53.8 ± 6.6% | 74.6 ± 3.3%
UUGUCACACAUGUAAACCAAA | 40.7 ± 1.1% | 42.9 ± 7.7% | 66 ± 6.3% | 76.6 ± 5%
UCUUCUAACAUGUAAACCAAA | 98.4 ± 19% | 80.1 ± 20% | 64.8 ± 6.4% | 95.4 ± 6.6%
UCAUGUAACAUGUAAACCAAA | 85.1 ± 22% | 60.7 ± 11% | 59.2 ± 13% | 80.2 ± 5.5%
UAUGCCAACAUGUAAACCAAA | 84.2 ± 9% | 67.1 ± 4.7% | 83.3 ± 3.4% | 87.7 ± 3.4%
UUGGAAUACAUGUAAACCAAA | 78.9 ± 14% | 35.2 ± 12% | 76.9 ± 2.2% | 78.1 ± 1.4%
UUAUAAAACAUGUAAACCAAA | 105 ± 4.1% | 69.4 ± 5.7% | 82.5 ± 6.7% | 104 ± 1.1%
UCAGAACACAUGUAAACCAAA | 87.9 ± 5.4% | 42.9 ± 1.8% | 63.6 ± 15% | 30.4 ± 2.5%
UAACGACACAUGUAAACCAAA | 93 ± 7.8% | 69 ± 7.6% | 65.7 ± 7.7% | 94 ± 9%
UUAUGACACAUGUAAACCAAA | 35 ± 3.8% | 69.5 ± 10% | 37.1 ± 1.6% | 43.4 ± 5.4%
UGGGUACACAUGUAAACCAAA | 90.5 ± 16% | 48.6 ± 11% | 63.9 ± 11% | 31.7 ± 1.4%
UUUGGGCACAUGUAAACCAAA | 39 ± 8.5% | 34.4 ± 2.2% | 46.4 ± 5.2% | 73.8 ± 4.7%
UGCCUAAACAUGUAAACCAAA | 87.8 ± 12% | 61.6 ± 6.9% | 54.8 ± 6.7% | 80.21 ± 0.56%
UGUGAUGACAUGUAAACCAAA | 90 ± 5.2% | 34.3 ± 9.7% | 47.6 ± 3.7% | 25.8 ± 8.4%
UGGUCUCACAUGUAAACCAAA | 89.8 ± 13% | 62.3 ± 22% | 47.4 ± 9% | 44.1 ± 4.4%
UUGCUAGACAUGUAAACCAAA | 72 ± 3.3% | 86.2 ± 6.2% | 41.3 ± 6% | 69.7 ± 3.6%
